# According to PubChem BioAssay AID488969 (Vanderbilt High Throughput Screening Facility, 2010):
# Whole data set: some 110,000 compounds, median “z-score” near -0.1, cut for the highest 2% near 2. This is one part of the list. Active and inactive are the calls of the source.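 Rule for the calls: active = z-score in the third read window above 3 or below -3; inactive = the rest.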
# Biological target: Metabotropic glutamate receptor 8 (Rattus norvegicus) (UniProt P70579)
# Experiment: mGluR8 Gi/Go-coupled signaling modulation – cell-based, rat, thallium flux, HTS, primary screen (AID 488969)
# Settings: HEK293 rat mGluR8, GIRK (G protein-gated inwardly rectifying potassium channel) thallium flux, FluoZin2; at 10 µM; stronger effect = higher value; submaximal glutamate (EC20) added with thallium
# UniProt P70579, sequence (P70579 whole entry, looked up): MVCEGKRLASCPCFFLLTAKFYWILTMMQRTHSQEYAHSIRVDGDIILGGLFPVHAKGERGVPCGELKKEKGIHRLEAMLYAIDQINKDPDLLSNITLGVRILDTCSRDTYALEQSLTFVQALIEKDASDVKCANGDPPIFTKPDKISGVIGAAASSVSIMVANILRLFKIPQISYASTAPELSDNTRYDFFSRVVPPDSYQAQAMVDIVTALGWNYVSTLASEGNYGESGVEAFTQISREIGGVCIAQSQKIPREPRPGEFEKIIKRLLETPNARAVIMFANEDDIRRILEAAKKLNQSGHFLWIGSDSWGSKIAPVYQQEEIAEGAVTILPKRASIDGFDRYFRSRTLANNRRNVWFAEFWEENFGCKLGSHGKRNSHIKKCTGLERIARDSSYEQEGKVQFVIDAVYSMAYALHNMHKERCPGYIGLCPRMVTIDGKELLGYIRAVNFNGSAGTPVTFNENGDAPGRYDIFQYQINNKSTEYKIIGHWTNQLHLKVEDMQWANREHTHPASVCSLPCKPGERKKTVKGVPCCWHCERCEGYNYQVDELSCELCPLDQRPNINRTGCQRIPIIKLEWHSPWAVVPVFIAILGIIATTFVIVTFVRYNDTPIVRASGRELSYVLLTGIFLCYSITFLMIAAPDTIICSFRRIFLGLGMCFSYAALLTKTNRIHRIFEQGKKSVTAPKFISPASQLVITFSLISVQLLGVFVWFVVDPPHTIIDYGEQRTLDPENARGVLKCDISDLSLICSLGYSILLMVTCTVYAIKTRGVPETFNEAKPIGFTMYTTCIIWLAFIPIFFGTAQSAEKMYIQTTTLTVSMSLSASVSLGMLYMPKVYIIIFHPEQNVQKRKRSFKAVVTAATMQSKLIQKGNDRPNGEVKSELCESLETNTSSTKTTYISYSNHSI
row,Structure (SMILES),z-score
1,Cc1[nH]c(=O)[nH]c(=O)c1CSc1nnc(CCCCCNC(=O)OC(C)(C)C)o1,0.723
2,CCCCCOc1ccc(C(=O)C(c2ccccc2)N2CCOCC2)cc1 (stereo unspecified),0.204
3,Cc1cc(C)n(CCC(=O)N/N=C/c2ccc(O)cc2O)n1,0.202
4,O=C(Nc1ccc(N2CCOCC2)nc1)c1ccc(Cl)cc1,-0.00174
5,Cc1ccc2cc3cc(C(=O)NCCC(C)C)oc3nc2c1,-0.127
6,CCC(=O)N1CCc2cc(S(=O)(=O)NCCCN(CC)Cc3ccccc3)ccc21,-0.213
7,COc1cc(NC(=O)c2cc(-c3cccc(O)c3)on2)cc(OC)c1OC,0.445
8,CCCOc1ccc(N2C(=O)CC(N3CCC(O)(c4cccc(C(F)(F)F)c4)CC3)C2=O)cc1 (stereo unspecified),-1.24
9,CCOC(=O)C1CCN(c2ccc(C(=O)O)cc2[N+](=O)[O-])CC1,0.0759
10,C/C=C/c1ccc(OCC(=O)OCc2csc(Nc3ccc(C)cc3)n2)c(OC)c1,-0.254
11,CCOC(=O)n1c(=O)oc2ccc(Cl)cc21,0.192
12,CSc1nc(Oc2ccc(F)cc2)c2ccccc2n1,-0.0318
13,CCCn1c(SCC(=O)N2c3ccccc3Sc3ccccc32)nc2ccccc21,-0.0447
14,Cc1c(C(=O)O)sc2nc3n(c(=O)c12)CCCCC3,0.273
15,CCn1nc(C(=O)NNC(=O)COc2ccc(OC)cc2)c2ccccc2c1=O,-0.00775
16,CC(=O)Nc1nc(-c2ccc(Br)s2)cs1,0.29
17,O=C(Nc1cccc(Cl)c1)N(Cc1nc2ccccc2c(=O)[nH]1)Cc1cccs1,0.103
18,N=c1n(Cc2ccccc2)c2ccccc2n1CC(O)COc1ccccc1 (stereo unspecified),0.257
19,O=C(OCCNC(=O)c1ccc2ccccc2n1)c1ccc(F)cc1,-0.612
20,Nc1ccc(-c2nc3ccc([N+](=O)[O-])cc3[nH]2)cc1,-0.169
21,COc1ccc(C(=O)COc2cccc(NC(=O)c3ccco3)c2)cc1,-0.402
22,O=C(COc1ccccc1Br)N1CCN(c2ccccc2)CC1,0.00637
23,CSc1nnc(Cn2c(=O)sc3ccccc32)n1-c1ccccc1,0.501

row,Structure (SMILES),z-score
1,Cn1c(Cc2ccccc2)nnc1SCC(=O)N1CCOCC1,0.0882
2,O=S(=O)(c1ccc(Br)s1)n1cccn1,0.875
3,COc1ccc(OCC(=O)NNC(=O)c2cccs2)cc1,0.919
4,C/C(=N/OCO/N=C(\C)c1ccccc1)c1ccccc1,0.194
5,CC1CCN(CCCCOc2ccccc2-c2ccccc2)CC1,0.189
6,COc1ccc(NC(C)=O)cc1NC(C)C(=O)Nc1ccc(F)cc1 (stereo unspecified),0.0371
7,COC(=O)CCCCC(=O)C1C(=O)CC(C)(C)C(C(=O)OC)C1=O (stereo unspecified),-0.00816
8,CC(=O)N1CCC(N(CCN2CCOCC2)C(=S)Nc2cc(C)ccc2C)CC1,-0.0971
9,Cc1ccccc1NC(=O)c1ccccc1NS(=O)(=O)c1cccc2cccnc12,-0.0166
10,COc1ccc(NC(=O)Cn2c(=O)n(-c3ccccc3)c(=O)c3oc4ccccc4c32)c(OC)c1,-0.212
11,COc1ccc(C(=O)/C=C/Nc2ccc(S(=O)(=O)Nc3nc(C)cc(C)n3)cc2)cc1OC,-0.234
12,Cn1c(Cc2ccccc2)nnc1SCC(=O)Nc1ccccc1N1CCOCC1,-0.301
13,CCOc1ccc(CNn2nnnc2N)cc1,0.553
14,CC(C)NC(=O)CSc1nnc(-c2ccc(C(C)(C)C)cc2)n1C,0.122
15,Cc1cccc(C)c1NC(=O)CCCSc1nnc(-c2ccco2)n1-c1ccccc1,-0.675
16,O=C(C[n+]1cccc2ccccc21)c1ccccc1,-0.217
17,COc1cc(NC(=O)C2CCCN(c3ncccn3)C2)cc(OC)c1 (stereo unspecified),0.815
18,COC(=O)Cn1nc(-c2ccc(C)c(S(=O)(=O)N(C)C)c2)c2ccccc2c1=O,0.444
19,CCC(=O)N1CCCc2cc(S(=O)(=O)N3CCCc4ccccc43)ccc21,-1.28
20,O=[N+]([O-])c1ccc2n[nH]nc2c1,-0.0156
21,CCC1(c2ccc(Cl)cc2)NC(=S)N(c2ccccc2)N1 (stereo unspecified),active: 4.78
22,CC(C)N=Cc1c(O)[nH]c2ccccc12,0.105
23,CC(C)c1cccc(C(C)C)c1OCCCCN1CCCC1,0.931

row,Structure (SMILES),z-score
1,C=CCNC(=O)c1c(-c2c(F)cccc2Cl)noc1C,-0.0316
2,Cc1noc(C)c1CN1C(=O)NC(Cc2ccccc2)(Cc2ccccc2)C1=O,1.87
3,CCOc1ccc(S(=O)(=O)NCc2ccccn2)cc1,-0.111
4,COc1ccc(NS(=O)(=O)c2cccc3nsnc23)cc1OC,0.0859
5,CCN(CC)S(=O)(=O)c1cccc(C(=O)N[C@H](C(=O)OCC(=O)Nc2ccccc2)C(C)C)c1,-1.43
6,CC1(C)CC(=O)C=C(NNC(=O)c2ccccc2O)C1,-0.267
7,Nc1ccc(S(=O)(=O)NC2(C(F)(F)F)NC(=O)N(c3ccccc3Cl)C2=O)cc1 (stereo unspecified),-0.371
8,Cn1c(-c2c(N)n(CCc3ccccc3)c3nc4ccccc4nc23)nc2ccccc21,-0.429
9,CC1(C)CC(=O)C2=C(C1)N(Cc1cccnc1)C(=O)C2(NC(=O)c1ccc(F)cc1)C(F)(F)F (stereo unspecified),-0.0605
10,CCN(C(=O)c1ccco1)c1nc(CC(=O)Nc2ccc(Cl)cc2)cs1,-0.635
11,COc1ccc(/C=C2\OC(=O)c3c(OC)cccc32)cc1OC,0.0754
12,Cc1ccc(-c2noc(-c3ccccc3C(=O)N3CCCC3)n2)cc1,-0.628
13,COc1ccc(CN(CC(=O)NCC2CCCO2)C(=O)CCC(=O)Nc2cc(C)ccn2)cc1 (stereo unspecified),-0.0534
14,O=C(CN(C(=O)CNS(=O)(=O)c1ccccc1)c1ccc2c(c1)OCCO2)NCc1ccco1,-1.1
15,NC(=O)Nn1c(CCC(=O)O)ccc1-c1ccc(Br)cc1,-0.193
16,O=C(CSCc1ccccc1)N1CCc2ccccc21,-0.196
17,COC(=O)c1ccccc1OC(=O)c1cccnc1,-0.23
18,Cc1ccc(N2C(=O)CC(NNc3nc4ccccc4s3)C2=O)cc1C (stereo unspecified),9.02e-05
19,NC(=O)c1ccccc1NS(=O)(=O)c1ccc2c(c1)OCCO2,-0.0146
20,O=C(COC(=O)c1ccccn1)Nc1ccc(S(=O)(=O)N2CCOCC2)cc1,0.194
21,CC(C)[C@H](NC(=O)NCCc1ccccc1)C(=O)O,0.184
22,CNC(=O)/C(=C\c1ccc2c(c1)OCO2)NC(=O)c1ccc(Br)cc1,-0.105
23,CCOc1ccccc1C(=O)NCCCCCC(=O)O,-0.0332

row,Structure (SMILES),z-score
1,CC1Cn2c(nnc2-c2ccccc2O)S1 (stereo unspecified),-0.365
2,CCOC(=O)CCc1c(C)c2ccc(OCC(=O)N(CC)CC)c(C)c2oc1=O,-0.0102
3,CCn1c(Cc2ccccc2)nnc1SCC(=O)NC1CC1,-0.232
4,CS(=O)(=O)Nc1ccc(C(=O)NCCc2ccccc2)cc1,-0.541
5,CCOc1ccccc1C(=O)N1CCC(n2nnc3cc(C)ccc32)CC1,-0.309
6,O=[N+]([O-])c1cc(S(=O)(=O)N2CCCC2)ccc1NN=C1CCCC1,-0.43
7,COc1cc(NC(=O)COc2c(C)cc(C)cc2[N+](=O)[O-])c(OC)cc1Cl,-0.148
8,COc1cccc(NC(=O)C2CC(=O)N=C(N)S2)c1 (stereo unspecified),0.56
9,CC1CCCCC12NC(=O)N(CC(=O)c1ccc[nH]1)C2=O (stereo unspecified),1.05
10,CCCCN(CCCC)S(=O)(=O)c1ccc(NS(=O)(=O)c2ccc(NC(C)=O)cc2)cc1,-0.173
11,Nc1nnc(CC(c2ccccc2)c2ccccc2)s1,0.186
12,CCOc1ccc2[nH]c(=O)c(C(c3nnnn3Cc3ccco3)N3CCC(C)CC3)cc2c1 (stereo unspecified),-0.251
13,Cc1ccc(S(=O)(=O)NCCCCC(NC(=O)OC(C)(C)C)C(=O)O)cc1 (stereo unspecified) (tested in a mixture with another compound),-0.148
14,N/C(=N\O)c1ccc(NC(=O)c2ccc(Br)o2)cc1,0.000467
15,CCCCCCCCCSc1n[nH]c(N)n1,0.431
16,O=C(Nc1ccc(F)c(F)c1)c1cnc(-c2ccccc2)nc1-c1ccccc1,-0.226
17,CC/C(=N\NC(=O)c1ccc2c(c1)OCO2)C12CC3CC(CC(C3)C1)C2,1.44
18,CC1C(=O)CCN(C(C)C)C1C (stereo unspecified),0.228
19,CCOC(=O)c1[nH]c(C)c(/C(O)=C2\C(=O)C(=O)N(CCCN(C)C)C2c2ccncc2)c1C (stereo unspecified),-0.219
20,CC(=O)N1CCC(N(C(=O)Nc2ccc(C)c(C)c2)C2CCCC2)CC1,0.349
21,N#CCCN1CCn2c1nc1ccccc12,0.182
22,COc1ccc(OC)c(-n2c(CNC3CCN(Cc4ccccc4)CC3)nc3ccccc3c2=O)c1,-0.0341
23,COc1ccc(C(=O)N(CN2CCCC2=O)c2cc(C)on2)cc1OC,0.804

row,Structure (SMILES),z-score
1,CC(C)(C)C(=O)NCCN1CCN(C(=O)C(C)(C)C)CC1,0.576
2,O=C(NC(=S)Nn1cnc2c(cnn2-c2ccccc2)c1=O)c1ccccc1,-0.101
3,O=C(CN1C(=O)c2ccccc2C1=O)Nc1ccc2c(c1)OCO2,-0.335
4,COc1ccc(/C=N/NC(=O)c2cccc([N+](=O)[O-])c2)cc1OS(=O)(=O)c1ccc(C)cc1,-0.246
5,O=C(c1ccc(Cl)cc1)C1CCN(C(=O)C2CC2)CC1,0.108
6,CC(Oc1ccc(Cl)cc1Cl)c1nc(-c2ccccn2)no1 (stereo unspecified),0.332
7,COC(=O)CCSc1nccn1Cc1ccccc1,-0.124
8,COc1ccc(N2C(=O)C3CC(C)=C(C)CC3C2=O)c(OC)c1 (stereo unspecified),0.0697
9,O=c1oc2ccccc2c(Nc2cccc3ccccc23)c1[N+](=O)[O-],-0.861
10,CCOc1ccc(NC(=O)c2cc3c(C)nc4ccccc4c3o2)cc1,-0.286
11,O=C(CNC(=O)c1cccs1)NCC(=O)OCc1cccc(Cl)c1,0.192
12,CC(C)C(c1nnnn1C1CCCC1)N1c2ccccc2CC1C (stereo unspecified),-1.44
13,Cc1ccc(-c2nn3c(C)nnc3s2)cc1NC(=O)C(C)C,-0.144
14,CCN1C(=O)/C(=C\c2ccncc2)SC1=Nc1ccc(C)c(C)c1,-0.266
15,COc1ccc(-c2noc(-c3cc(C)cc(C)c3)n2)cc1OC,0.138
16,Cc1c(C(=O)NCc2ccc3c(c2)OCO3)oc2ccc(S(=O)(=O)N3CCC(C)CC3)cc12,0.415
17,COc1ccc(-c2nnc(SCC(=O)NC3CCCCC3)o2)cc1OC,-0.0736
18,CCOC(=O)C(Cc1ccccc1)NC(C)=O (stereo unspecified),-0.16
19,COc1cc(OC)cc(C(=O)NCc2nc(-c3ccccc3)no2)c1,-0.942
